Test results from the supplement of paper PMC3334620.
The full ranking holds about 33,000 sequences; the median of “E-score (-0.5 to 0.5)” is about -0.017, and the highest 2% start at about 0.3. The list shows a part of the results.

Molecular target: T1, Sut1 (UniProt P53032)
T1 sequence: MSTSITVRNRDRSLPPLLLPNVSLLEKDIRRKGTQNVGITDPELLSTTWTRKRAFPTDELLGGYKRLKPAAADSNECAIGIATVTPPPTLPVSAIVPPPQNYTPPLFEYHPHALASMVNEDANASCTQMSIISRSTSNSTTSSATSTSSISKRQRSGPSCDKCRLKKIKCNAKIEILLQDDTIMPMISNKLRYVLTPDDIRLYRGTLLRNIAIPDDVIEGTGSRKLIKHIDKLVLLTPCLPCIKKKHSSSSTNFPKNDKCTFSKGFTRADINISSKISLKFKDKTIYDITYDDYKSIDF
Assay: PBM E-score (8-mer binding enrichment) (E-score (-0.5 to 0.5)); higher = stronger / more preferred TF binding; most listed sequences are background and not binding sites
Conditions: protein concentration: 200 nM; construct: GST-full length
Outline: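 Yeast transcription factors carrying a GST tag, as full-length proteins or DNA-binding domains, were produced by PURExpress in vitro transcription/translation. About 100-200 nM protein was applied to universal all-10-mer Agilent arrays, double-stranded by primer extension on fresh or once-stripped slides. Bound protein was detected with fluorescent anti-GST, and scans were normalised with masliner. The Universal PBM Analysis Suite gave each ungapped eight-base word, pooled with its reverse complement, an E-score, a modified Wilcoxon-Mann-Whitney statistic.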

Sequence	PBM E-score
TCACCCGA	-0.005
CACCTTTC	-0.139
TCAGACGA	-0.0583
AAAAAGAC	0.119
AGCTGATA	-0.0181
AAGAGGAC	-0.0407
CACATCAC	-0.135
CTAAGTAC	0.0447
GCATAAAC	0.109
AACATAGT	0.217
ATAGCTCA	-0.086
ATCCTGTC	0.0454
CGGGCCAA	-0.15
CACTAAGA	0.0726
GCAGCGCC	-0.218
ACGTAGCT	-0.00505
CGGTGTCC	0.0917
TGCCCTAA	-0.124
AAGATAAC	0.209
ACTTTTTA	0.214
GGCGTGTA	-0.211
ATCGTAAA	0.0376
GCAACGCA	-0.132
CTGGGTGA	-0.0506
AATGGCGC	-0.0799

Sequence	PBM E-score
AAGGTGGA	0.0583
CGGTAAAC	-0.128
ATGCCAAA	-0.102
CGATTACA	-0.00072
AGACATCG	-0.157
ATCCTGAA	0.105
GTCCCCGA	0.066
CGACTCAA	0.0624
CGACGTAA	-0.00534
ACCGGTAT	-0.059
CACAGCAA	0.187
ACTGCTAT	0.0327
TAGACTCA	0.0311
ACTCGGTC	-0.072
GCGCAAGC	-0.234
ACACCAGC	-0.143
ACGCTTAA	0.00904
ACTAGTCC	0.236
ATTAGTTG	0.163
GCCTACTA	0.00387
CTAATACC	-0.0565
AACTCGCG	0.125
GGGTAAGA	-0.0307
TACCATCA	-0.106
ATAATAAA	0.339

Sequence	PBM E-score
AGGGGACC	-0.251
CGCTTTGA	0.00187
AGGACTAG	-0.0577
GATGCACC	-0.0128
CGTTTGTC	-0.162
GATTGCCC	-0.142
ACTGCTTC	-0.168
CTAACCAC	-0.0263
CAAGAAGG	-0.0822
AATGTTCA	0.137
GTGGACCA	-0.204
GGTCGGTA	-0.0674
AGACTGAT	0.102
CACTCTGC	-0.141
CGGGGGCC	-0.195
GTCCGTGA	0.251
CGTCAAGC	-0.125
TCGGCTCA	-0.14
GCCATGGA	-0.198
GAGTACGA	0.14
GCAGTATA	-0.0237
CGTCGCGA	-0.0743
ACCTGGCT	-0.17
AACATGAC	0.165
TATCGGAA	0.26

Sequence	PBM E-score
CTAGCGAC	-0.124
AATCCCAG	0.0474
GTGCCCTA	-0.31
GTCGCTTA	-0.0152
AGTCCATC	-0.129
GTCTTTAA	-0.00514
CCGTATAG	0.0391
ATTTTATG	0.13
CTACGTGC	-0.0843
AGACATAA	0.102
GCAGAAGA	-0.157
CCAGTACG	-0.115
AGTCTGAG	-0.247
ATCGCGGG	-0.128
AGTTAAGG	0.00162
ACATAGCA	0.0804
TAGGAATA	0.0527
ACTGCTCG	-0.0729
CTATTTAA	0.188
AGTCAGGA	-0.169
TCGAGAAA	0.103
AGGGAAGC	-0.113
GCGGGGAA	-0.0681
GAAGGCCC	-0.157
CCTTCCCG	-0.188

Sequence	PBM E-score
AGAAAAAG	0.138
CTGCCAAG	-0.0803
CGGGCCGA	-0.172
TTCAAGAA	0.252
TCCTAGCA	-0.0531
CCGAATGC	0.0646
GGTTGTAA	0.188
AACTGGGT	-0.126
ACCTTCCG	0.12
AAATGCCC	-0.199
ACGATTTG	0.124
CTATTAGC	0.157
CGTCTGAA	-0.0662
CTGGCTTA	-0.205
GGTTCGCA	-0.0674
AATTTTAA	0.295
ATTAAATG	0.243
GCGGTGCA	-0.175
ATAGCCAA	0.109
AATGAGTA	0.242
GGTAAAGA	0.161
CTGTACCC	0.0146
CACTGGAG	-0.349
AGGAGCCT	-0.0746
ACAGCGTC	0.0103

Sequence	PBM E-score
ATCAGCAG	-0.0924
CGGACGCC	-0.0182
GCTTGGGA	-0.258
ACATCCGG	0.132
GGATGGAA	-0.00982
AATGGCCT	0.0835
ATTTAATC	0.307
TTCCGAAA	0.291
CCAAGTTA	0.0242
TAAGTACA	0.111
ATCATAAA	0.0553
GGGTCCAA	-0.156
GGAATAAA	0.189
CGGACCTA	0.42
ACACTCCC	-0.0227
CATTTTCA	0.161
GGTCCGTA	0.253
CAGGAATA	0.0329
ATAGACTC	-0.125
CAACCTTA	-0.0348
CAGACTAC	-0.19
CTTAATTA	0.0362
CAAGCCAA	-0.059
GAGTAGCA	0.0747
TAGTCCAA	-0.01

Sequence	PBM E-score
AGGCCTGG	-0.227
ACACAGCG	0.0219
CGTTCCAC	-0.126
ACATACGA	0.117
ATGTTTGC	-0.0518
TCGTTCCA	-0.0676
ATTAAAGA	0.311
ACATCGTA	0.00487
AGTACTGG	-0.186
GTGATGGA	-0.0248
TCCGTGCA	0.252
ACTACTCA	0.164
ACGTACGT	-0.147
CGGCCTAG	-0.315
CTAAAACC	-0.0394
ACCGAGCG	-0.0249
ACAGCACG	0.0231
CGCGTCGA	-0.0126
AAAGGCAC	-0.0268
AGTACAAG	-0.0112
AACACCAA	0.0507
ATCATTTC	0.225
ATACAACG	0.197
GTTCACGA	0.0274
GGATGTAC	0.0606

Sequence	PBM E-score
AAGATTCT	-0.102
CAGTTCTA	-0.125
CTCTACAG	-0.113
ATAGCTAA	-0.0492
ATGGCTAA	0.0596
AAACGCGG	0.238
ACTAGGAA	0.072
ATCTCCCG	-0.0416
CGTTAGTC	0.0993
AATTAGGT	0.159
CGGACGTA	0.104
ATCGAATC	0.0591
GCAAATGC	-0.122
CCGCCGAC	-0.1
ATTAAGCC	0.141
CTCTGAAA	-0.1
AGCGACCA	0.0107
CCGCCCGG	0.113
GAGCAGTA	0.0211
CATCTATA	0.267
AATTATGC	0.208
GCCTCAGC	-0.251
TGAGTCAA	0.11
AGCCAGCA	-0.215
CTCGTGTC	-0.212

Sequence	PBM E-score
CTACTTTA	0.0985
AACGGTAC	0.106
AATGATCA	0.0374
GCATTCGC	0.00851
CGAAGGTC	0.0331
ATCGGGGG	-0.081
ATTGGCTC	0.0791
ACGCCCTC	-0.102
GCGAAAGA	-0.0511
AGCGAAAT	0.0618
GAATACAA	0.252
CGTTGCGC	-0.153
GACAAAAA	0.27
ATTCACTC	0.0156
AAAACCAA	0.0706
ATGAATTA	0.16
CCTACGTC	-0.139
CATTAACC	0.148
ATCAGTCG	0.135
ACTGTTCT	0.135
CATTCCCG	-0.0507
ATCTATGG	-0.226
AATGGGTG	-0.0472
GGGGAGTA	-0.00179
ATACTTGG	-0.1

Sequence	PBM E-score
ACGAGACA	-0.108
AAAGGCCG	-0.0675
GTGTCAAA	0.0945
ATTTCAAG	0.164
GGCAGTAC	-0.117
CCATTGGG	-0.335
GCGCATCC	-0.137
GTATACAA	0.179
GCCGGTAC	-0.243
AAGAGAGA	0.0152
CAGTACAA	-0.0297
AAAAGCTT	0.0177
ACATGTCC	0.177
AATCTCAC	0.0356
GTACGGGA	-0.0895
CAGTGATA	0.0506
CATCCTCA	-0.0935
AATTCCAG	0.0606
AATTTAAG	0.218
CTGTCAAC	-0.102
GAACTGTA	0.237
CTGCTCAC	-0.196
CAAATAGG	-0.0921
GGCATCAA	-0.177
CCATCACG	-0.0075

Sequence	PBM E-score
AGACTTGG	-0.181
ACACGACC	-0.159
GTAGTGCA	0.0589
ATAGTTCC	0.145
AACTAACT	0.175
CCGGCCTC	-0.0332
CATCTCGA	-0.0582
GCCGGTAA	0.121
TCAAAAGA	0.0683
CAAATTCG	0.0687
GCAGAACC	-0.274
ACCTGCGA	-0.131
TAGCTCGA	0.00227
AATTTGTA	0.138
CCTTCTGC	-0.233
AGGAAACA	0.0247
ACCAACGC	0.014
AGGATAAA	0.143
AATTCGCG	-0.00818
ATTGTTAG	0.187
GTATTCTA	0.101
CTGATGGC	-0.0413
AATCAGCA	0.115
ACAACATA	0.1
GACGACCA	-0.0786

Sequence	PBM E-score
CCTGCCCC	-0.331
CCACTTAG	-0.148
AACGCTCA	0.0257
CTATTATC	0.143
CTCTAAGA	-0.0515
GACTCAAA	0.0112
CAATCTGC	-0.0526
GATGAGTA	0.146
CAGCGTCC	-0.0497
CAAACACC	0.109
ATTCCGGC	0.177
GTAGGGAA	-0.0957
GTGGCTGA	-0.17
ACAGCTTC	-0.101
GTCTTACA	-0.0467
GAATCTTA	0.0473
ATAAGTGC	-0.181
CAAAACCA	0.178
GTCTCAAA	-0.0778
AAAACCTG	-0.155
GATTCACA	-0.0333
CGTCCTGA	-0.191
CCCTCGTC	-0.094
CTCAAAAC	0.0575
CAGTTTAG	-0.0701

Sequence	PBM E-score
CGGGATGA	-0.0807
CAAACCTC	-0.129
AGAGTCGG	-8e-05
TCTACGCA	0.092
GAACTCGA	-0.135
AGAAAAGA	0.028
CACCAATG	-0.0733
AACTTGCC	0.0708
AACCCGTG	-0.278
CGAAGTTC	0.111
GGATGTGA	0.0595
GCAACCGA	-0.147
AAAAATCT	0.223
TCTAAGCA	-0.0537
AATAGTGG	0.041
GGAATTCC	0.0432
GAACCCGC	-0.136
AACGAGGA	-0.0346
CGGTCGGC	-0.24
AGAGTTAA	0.0656
ATAACCAA	0.154
CAAAATCC	0.247
AAGTCACG	0.0795
ATAATCCC	-0.0485
AGCCACAA	0.0235

Sequence	PBM E-score
AATGCACG	-0.0383
AGTTTAGC	0.0646
CAGTTTAC	-0.046
GACCTCGC	-0.142
CCGATGGA	0.0248
GAAGACAC	0.0244
CGTTTAAA	0.216
ATGCGTTA	0.0573
AATAGCAA	0.219
ATACGGAG	0.362
ATTTCGAG	0.164
CGTAGTAG	0.0489
GCTTCTTA	0.0688
CGTAGCGC	-0.0721
GAATCGCA	-0.0351
ACCGATAC	0.0287
ACAAGACA	0.0347
AGGGGCAG	-0.316
ATTGGTAG	0.146
